PubChem BioAssay AID651820 (National Center for Advancing Translational Sciences (NCATS), 2012)
In all, about 340,000 compounds went through this assay and about 12,000 (3.5%) were called active. Inconclusive results, whose numbers are uncertain, are shown with a selection of clear calls. The call rests on the fitted dose curve; in most records, active means well fitted inhibition curve with a large enough effect; inconclusive means small, poorly fitted or top-dose-only effect, or another doubt; inactive means no such curve, though single readings can be large or run the other way. No potency is given beside an inconclusive call; the fits are too rough.

Assay: qHTS Assay for Inhibitors of Hepatitis C Virus (HCV)
Details: Huh7.5.1 HCVcc-Cre (HCVcc is cell-culture hepatitis C virus) infection, luciferase reporter, 44 h; series mostly up to 41.8 µM
Method in brief: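 1,000 cells/well; 4 h culture; + compound; + HCVcc-Cre (~0.5 moi); 44 h; luciferase substrate, RT 15 min; read 15 sec.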
Potency means the concentration at half of the fitted maximal effect; tags describe the fitted curve by direction and shape.

Compound | Potency
Cc1nc(C)c(C(=O)NNS(=O)(=O)c2ccc3ccccc3c2)s1 | active: 12.6 µM
CC(=O)Nc1ccc(-c2nc3c(C)cccc3[nH]2)cc1 | inconclusive [inhibitor, single point]
CCC(C)(NC=O)C(=O)Nc1c(C)cccc1C (stereo not given) | inactive
Brc1ccc2ncnc(NCc3ccccc3)c2c1 | active: 10 µM
Cc1cc(C)c(C(=O)c2ccc(C(=O)NC(C)(C)C)cc2)c(C)c1 | inconclusive [inhibitor, partial curve]
O=C1CC(/C=C/c2ccncc2)=Nc2ccccc2N1 | inconclusive [inhibitor, single point]
COc1cccc(CN(C)C(=O)c2cc(-c3ccc(F)cc3)nc3ccccc23)c1 | active: 31.6 µM
CC1CC(C)CN(C(=O)COC(=O)c2cc(S(=O)(=O)N3CCOCC3)ccc2F)C1 (stereo not given) | inconclusive [inhibitor, single point]
Cc1cccc(C2=NC(C(F)(F)F)(C(F)(F)F)c3c(n(-c4ccc(F)cc4)c(=O)[nH]c3=O)N2)c1 | inconclusive [inhibitor, single point]
O=C(Cc1cccc2ccccc12)Nc1ccc(-c2cc3ccccc3oc2=O)cc1 | inconclusive [inhibitor, full curve]
CCOC(=O)C1=C(COc2ccccc2)NC(=O)NC1c1cccc([N+](=O)[O-])c1 (stereo not given) | inconclusive [inhibitor, partial curve]
C=CCn1c(-c2ccc(Cl)cc2)cnc1SC(C)C(=O)NC(N)=O (stereo not given) | inconclusive [inhibitor, single point]
CC(=O)Nc1cccc(OCC(=O)Nc2cccc(S(=O)(=O)N3CCCC3)c2)c1 | inconclusive [inhibitor, partial curve]
CN1CCC(N(C)CC(O)c2ccccc2)CC1 (stereo not given) | inactive
COc1ccc(OCC(O)CNS(=O)(=O)c2cccc(Cl)c2)cc1 (stereo not given) | inactive
Cc1ccc(CNC(=O)COc2ccc(C(=O)c3ccc(F)cc3)cc2)cc1 | inactive
Cc1cc(C)c(C(=O)N2CCCC(N3CCN(c4cccc(C(F)(F)F)c4)CC3)C2)o1 (stereo not given) | active: 11.2 µM
CCn1c(CNC(=O)C23CC4CC(CC(C4)C2)C3)nnc1SCC(=O)Nc1nnc(C)s1 | inactive
COc1ccc2cc3c(N)nn(C(=O)c4ccccc4[N+](=O)[O-])c3nc2c1 | inconclusive [inhibitor, partial curve]
Cc1ccc2c(c1)c1c(n2CC(O)Cn2c(C)nc3ccccc32)/C(=N\O)CCC1 (stereo not given) | inconclusive [inhibitor, single point]
CCOc1ccc2[nH]cc(S(=O)(=O)c3ccc(F)cc3)c(=O)c2c1 | inconclusive [inhibitor, partial curve]
CCC(=O)OC(Cc1ccccc1)(c1ccccc1)[C@H](C)CN(C)C (stereo not given in full) | inconclusive [inhibitor, single point]
O=C(Nc1ccn(CCCNCc2ccccn2)c(=O)n1)OCc1ccccc1 | inconclusive [inhibitor, full curve, poor fit]
CCn1cc(C(=O)Nc2ccc(NC(=O)c3ccco3)cc2)c(=O)c2ccc(C)nc21 | inconclusive [inhibitor, partial curve]
Cc1ccc(CN2CCCN(C)CC2)c(C)c1 | inactive

Compound | Potency
Cc1cc(NC(=O)COC(=O)C(Nc2ccc(C(F)(F)F)cc2Cl)C(C)C)no1 (stereo not given) | inconclusive [inhibitor, single point]
COC(=O)c1c(C)oc2ccc(N(C(=O)Oc3ccccc3)S(=O)(=O)c3ccccc3)cc12 | inconclusive [inhibitor, single point]
CCCN(C(=O)CSCc1ccccc1C)c1c(N)n(Cc2ccccc2)c(=O)[nH]c1=O | inactive
O=C(NNC(=O)c1ccccc1O)c1ccc(Cl)c(S(=O)(=O)N2CCCCC2)c1 | inactive
c1ccc(CCc2nn3c(Cc4ccccc4)nnc3s2)cc1 | inconclusive [inhibitor, partial curve, poor fit]
CCOc1ccc(S(=O)(=O)NCCC(=O)NCc2ccc(OC)c(OC)c2)cc1 | inactive
Cc1cc(C)n2cc(CSc3nncn3C)nc2n1 | inactive
O=C(Nc1cccc(S(=O)(=O)N2CCCCC2)c1)c1ccc(S(=O)(=O)C(F)F)cc1 | inconclusive [inhibitor, single point]
O=C(NCCOc1nc(N2CCOCC2)nc(N2CCOCC2)n1)Nc1ccccc1 | inconclusive [inhibitor, partial curve]
CCOc1ccc(NC(=O)COC(=O)C2CCC(=O)N2)c([N+](=O)[O-])c1 (stereo not given) | inactive
Cc1nn(Cc2ccccc2)c2ncccc12 | inactive
CCOc1cc([N+](=O)[O-])c2nc(N)sc2c1 | inconclusive [inhibitor, single point]
CCC(C)NS(=O)(=O)c1ccc(NC(=O)C(Sc2ccccc2)c2ccccc2)cc1 (stereo not given) | inconclusive [inhibitor, single point]
Cn1c(SCC(=O)Nc2nccs2)nnc1-c1ccncc1 | inactive
COc1ccc2nc(SCC(=O)NC3(C#N)CCCCC3)[nH]c2c1 | inconclusive [inhibitor, single point]
Nc1c(C(=O)CSc2nnc(Cc3ccccc3)o2)c(=O)[nH]c(=O)n1C1CC1 | inactive
CCC(C)[C@H]1CN=C(N)N1CC1CCCCC1 (stereo not given in full) | inconclusive [inhibitor, single point]
COc1ccc(C(=O)Nc2ccc(Nc3ccccc3)cc2)cc1[N+](=O)[O-] | active: 11.2 µM
Cc1cccc(NC(=S)N(CCN(C)C)Cc2cc3cc(C)ccc3[nH]c2=O)c1 | inactive
N#CCn1c(CCl)nc2ccccc2c1=O | inactive
COc1ccc(C(=O)Nc2cc3c4c(c2)C(C)C(=O)N4CCC3)c(OC)c1 (stereo not given) | inconclusive [inhibitor, partial curve]
CCCOc1ccc(N2C(=O)CC(N(Cc3ccccc3)N=O)C2=O)cc1 (stereo not given) | inactive
O=C(c1ccc(F)cc1)N1CCCCC(Sc2nnc3ccccn23)C1=O (stereo not given) | inconclusive [inhibitor, partial curve]
COCCCN(Cc1ccco1)C(=O)c1cc2c(s1)-c1ccc(Cl)cc1S(=O)(=O)C2 | inactive
CCOC(=O)C1(Cc2ccc(Cl)cc2)CCN(C(C)CCn2cccn2)CC1 (stereo not given) | inconclusive [inhibitor, partial curve]

Compound | Potency
O=C(OCC#Cc1c(COC(=O)c2ccccc2)nnn1Cc1ccccc1)c1ccccc1 | inactive
Cc1ccc(C)c(NC(=S)N2CCCC2)c1 | inactive
CCOc1cc(Br)ccc1S(=O)(=O)N1CC(C)OC(C)C1 (stereo not given) | inconclusive [inhibitor, single point]
CC(C)N1CCC(N2CCN(Cc3ccc(-c4ccc(Cl)cc4)o3)CC2CCO)CC1 (stereo not given) | active: 3.98 µM
CN(C)c1ccc(C#Cc2ccc3cc(CCO)oc(=O)c3c2)cc1 | inconclusive [inhibitor, full curve]
CCCCN(c1ccccc1)c1ncnc2nc[nH]c12 | inactive
O=C(CCS(=O)(=O)c1ccc(Cl)cc1)OCC(=O)N1CCCCC1 | inactive
CCCCn1c(N)c(N(CCC(C)C)C(=O)COC(=O)c2ccco2)c(=O)[nH]c1=O | inactive
CC1=NN(c2ccccc2)C(=O)/C1=C\c1cc(C)n(-c2ccccc2)c1C | inconclusive [inhibitor, single point]
COc1ccc(C2/C=C\CN(S(=O)(=O)c3cccs3)CC(=O)N2Cc2ccc(F)cc2)cc1 (stereo not given) | inconclusive [inhibitor, single point]
CCOc1cc(/C=N/NC(N)=S)cc(Br)c1OCc1ccccc1C | active: 11.2 µM
CCOc1cccc(/C=N/NC(=O)C2CCCC2)c1O | inconclusive [inhibitor, single point]
Cc1ncc(CN2CCCC(C(=O)c3ccc(C(C)(C)C)cc3)C2)s1 (stereo not given) | active: 11.2 µM
CC(C)N(Cc1ccccc1)C(=O)CN1c2cccc3cccc(c23)S1(=O)=O | inconclusive [inhibitor, single point]
Cc1ccc(S(=O)(=O)N2CCN(CCc3ccccc3)CC2)c(C)c1 | inconclusive [inhibitor, single point]
CCn1c(=O)c(C(=O)CC#N)c(N)n(Cc2ccccc2)c1=O | inactive
Cc1ccc2[nH]c(=O)c(CN(Cc3ccccc3)Cc3nnnn3C3CCCC3)cc2c1 | inconclusive [inhibitor, single point]
O=C(Nc1ccccc1)Nc1cccc(-c2cn3cccnc3n2)c1 | inconclusive [inhibitor, full curve]
O=C(NCCN1CCOCC1)Nc1ccc(Cl)cc1 | inactive
CS(=O)(=O)c1ccc(N2CCN(c3ccccn3)CC2)c([N+](=O)[O-])c1 | inactive
Cc1cc(-c2ccco2)n(-c2ccccc2)n1 | inactive
CC(C(=O)Nc1ccc(F)c(F)c1F)N(C)CCOc1ccccc1 (stereo not given) | inactive
COc1ccccc1Nc1nc(N)nc(CSC(=S)N2CCCCC2C)n1 (stereo not given) | inconclusive [inhibitor, single point]
CCc1ccccc1NC(=O)C1CCCN(S(=O)(=O)c2ccc3c(c2)CC(C)N3C(C)=O)C1 (stereo not given) | inconclusive [inhibitor, partial curve]
Cc1ccc([N+](=O)[O-])c(OCCN2CCNCC2)c1 | inactive
